Experimental data reported in PubChem BioAssay (NCATS).
This list was built around the results that the source calls inconclusive (neither active nor inactive); the mix of calls is not that of the screen. For part of these data: Potencies of inconclusive entries are left out as doubtful fits. Activity calls are given as the source filed them. Unless noted, the call rests on the fitted dose curve; in most records, active means well fitted curve in the direction sought with a large enough effect; inconclusive means small, poorly fitted or top-dose-only effect, or another doubt; inactive means no such curve, though single readings can be large; an effect the other way counts as inactive or inconclusive.

Assays:
[1] = Primary qHTS for small molecule stabilizers of the endoplasmic reticulum resident proteome: Secreted ER Calcium Modulated Protein (SERCaMP) assay (AID 1508630); conditions: SH-SY5Y GLuc-SERCaMP (Gaussia luciferase released on ER calcium loss) secretion, thapsigargin, luminescence; series mostly up to 38.4 µM; further: potency means the concentration at half of the fitted maximal effect
Outline: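 The SH-SY5Y reporter protocol was run at 3 concentrations up to 38.3 uM (primary) or 11 concentrations (follow-up): 16 h compound, 100 nM thapsigargin for 4 h, then extracellular luciferase luminescence.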

[2] = A High-Content qHTS Against Drug Library for the Identification of Small Molecules that Inhibit DYT1 Early Onset Primary Dystonia-Associated Cell Pathology (AID 1645839; calls by dose curve; further: potency means the concentration at half of the fitted maximal effect)
Outline: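 Cells were seeded and left for 24 h, then dosed with compound alongside tetracycline induction of mutant EGFP-TorsinA. They were incubated for 48 h, fixed in 4% paraformaldehyde, permeabilized and imaged for mislocalization (%pathology) and cell count.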

[3] = biological target: Cytochrome P450 2C9 (Homo sapiens) (UniProt P11712); assay: Cytochrome P450 family 2 subfamily C member 9 (CYP2C9) small molecule antagonists: luciferase biochemical (cell-free) qHTS assay (AID 1645842; active means well fitted curve in the direction sought with a large enough effect in the repeat runs; inconclusive means weak or mixed curves; inactive means no such curve, though single readings can be large; an effect the other way counts as inactive or inconclusive; further: nearly all actives have a fitted effect of over 55% in size)
Sequence of UniProt P11712 (P11712 whole entry, looked up): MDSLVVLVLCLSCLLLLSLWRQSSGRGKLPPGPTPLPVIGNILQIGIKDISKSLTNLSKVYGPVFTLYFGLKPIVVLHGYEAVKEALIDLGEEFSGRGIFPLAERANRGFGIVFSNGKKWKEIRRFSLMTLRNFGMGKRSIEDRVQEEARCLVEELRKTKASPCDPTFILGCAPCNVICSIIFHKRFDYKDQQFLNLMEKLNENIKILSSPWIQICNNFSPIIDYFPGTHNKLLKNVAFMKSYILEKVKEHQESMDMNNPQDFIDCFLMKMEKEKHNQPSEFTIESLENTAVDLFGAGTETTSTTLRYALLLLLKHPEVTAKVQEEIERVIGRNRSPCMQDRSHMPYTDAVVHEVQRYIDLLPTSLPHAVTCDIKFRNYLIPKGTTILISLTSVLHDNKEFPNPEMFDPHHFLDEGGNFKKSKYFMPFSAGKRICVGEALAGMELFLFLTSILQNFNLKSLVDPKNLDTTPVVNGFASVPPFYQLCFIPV
Outline: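 P450-Glo CYP2C9 system: proluciferin substrate with enzyme in mix containing 0.4% BSA, 10 min at room temperature, then NADPH regeneration solution added and incubated 1 h at 37C. Detection reagent stopped reaction; luminescence read after 20 min as RLU.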

Papain (Carica papaya) = Papain (Carica papaya) (UniProt P00784); assay: Primary qHTS assay for inhibitors of the protease papain (AID 1645873);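 further: papain turnover of Z-FR-AMC read as the AMC fluorescence gain over 10 min; potency means the concentration at half of the fitted maximal effect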
Sequence of UniProt P00784 (P00784 whole entry, looked up): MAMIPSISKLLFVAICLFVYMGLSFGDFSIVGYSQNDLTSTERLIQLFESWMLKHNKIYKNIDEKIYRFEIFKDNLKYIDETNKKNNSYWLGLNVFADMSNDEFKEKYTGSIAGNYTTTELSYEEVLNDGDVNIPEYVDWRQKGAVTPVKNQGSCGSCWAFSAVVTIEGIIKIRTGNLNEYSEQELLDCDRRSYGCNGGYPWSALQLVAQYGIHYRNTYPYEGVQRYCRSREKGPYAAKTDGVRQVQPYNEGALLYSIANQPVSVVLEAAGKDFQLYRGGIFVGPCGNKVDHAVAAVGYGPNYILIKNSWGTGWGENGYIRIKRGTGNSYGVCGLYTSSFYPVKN

[4] = biological target: Phospholipid hydroperoxide glutathione peroxidase GPX4 (Homo sapiens) (UniProt P36969); assay: Primary qHTS Assay for Inhibitors of Recombinant Selenoprotein Glutathione Peroxidase 4 (GPX4) (AID 1845192); further: potency means the concentration at half of the fitted maximal effect; nearly all actives have a fitted effect of over 65% in size
Sequence of UniProt P36969 (P36969 whole entry, looked up): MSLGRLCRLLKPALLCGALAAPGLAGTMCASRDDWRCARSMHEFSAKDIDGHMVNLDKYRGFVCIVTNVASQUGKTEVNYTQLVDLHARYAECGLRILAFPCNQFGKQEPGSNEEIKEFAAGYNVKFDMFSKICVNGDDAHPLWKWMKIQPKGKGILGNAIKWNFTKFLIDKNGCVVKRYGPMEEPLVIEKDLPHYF
Outline: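 Steps: GPX4 plus compound, 30 min RT; add GR/GSH/NADPH master mix; start with cumene hydroperoxide; read 340/450 nm fluorescence at 0 and 15 min. Finals were 200 nM GPX4, 1 mM GSH, 0.5 mM CHP, 0.5 mM NADPH, 100 nM GR.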

HaCat = assay: Cytotoxic Profiling of Annotated Libraries Using Quantitative High-Throughput Screening (AID 1296008); conditions: Five cell lines viability, CellTiter-Glo ATP luminescence, 48-72 h; max response: active compounds read low; further: potency means the concentration at half of the fitted maximal effect; nearly all actives have a fitted effect of over 60% in size
Outline: (§1)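 Cells exposed to compounds for 48 or 72 hr at 37 degrees Celsius. Viability read as ATP-coupled luminescence with CellTiter-Glo after 10 min at room temperature.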

KB-3-1 = assay: as above; conditions: Five cell lines viability, CellTiter-Glo ATP luminescence, 48-72 h; max response: active compounds read low
Outline: as §1

C33A = assay: Primary qHTS to identify gynecologic anti-cancer compounds using libraries of approved drugs and bioactive compounds (AID 1345084); conditions: Gynecologic cancer cell panel viability, ATPlite luminescence, 48 h; series mostly up to 57.5 µM; further: potency means the concentration at half of the fitted maximal effect; nearly all actives have a fitted effect of over 55% in size
Outline: (§2)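 Five-concentration response, 48 h; readout is ATP-driven luciferase luminescence.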

CAOV3 = assay: as above; conditions: Gynecologic cancer cell panel viability, ATPlite luminescence, 48 h; activity change, negative = cytotoxicity: at 57.5 µM (top of the series)
Outline: as §2

Es-2 = assay: as above; conditions: Gynecologic cancer cell panel viability, ATPlite luminescence, 48 h; series mostly up to 57.5 µM
Outline: as §2

HeLa = assay: as above; conditions: Gynecologic cancer cell panel viability, ATPlite luminescence, 48 h; activity change, negative = cytotoxicity: at 57.5 µM (top of the series)
Outline: as §2

Hek293T = assay: as above; conditions: Gynecologic cancer cell panel viability, ATPlite luminescence, 48 h, control line for the selectivity index; activity change, negative = cytotoxicity: at 57.5 µM (top of the series) unless noted
Outline: as §2

PA-1 = assay: as above; conditions: Gynecologic cancer cell panel viability, ATPlite luminescence, 48 h; series mostly up to 57.5 µM
Outline: as §2

SKOV3 = assay: as above; conditions: Gynecologic cancer cell panel viability, ATPlite luminescence, 48 h; series mostly up to 57.5 µM
Outline: as §2

Tov-21-G = assay: as above; conditions: Gynecologic cancer cell panel viability, ATPlite luminescence, 48 h; activity change, negative = cytotoxicity: at 57.5 µM (top of the series) unless noted
Outline: as §2

astro = assay: Drug repurposing screens with cells derived from glioblastoma tumor samples (AID 1345199); conditions: viability, ATP luminescence, 48 h; series mostly up to 45.9 µM; further: potency means the concentration at half of the fitted maximal effect; nearly all actives have a fitted effect of over 40% in size
Outline: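 Primary testing used CD133+ neurospheres from four GBM patients, seven concentrations, 48 h exposure and ATP-based viability; confirmation added three slower-growing patient lines.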

MCC-13 = assay: qHTS assay to identify novel small-molecules to repurpose for Merkel cell carcinoma treatment (AID 1296009); conditions: MCC and control cell lines, CellTiter-Glo viability, 72 h; series mostly up to 46 µM; further: potency means the concentration at half of the fitted maximal effect; nearly all actives have a fitted effect of over 60% in size
Outline: (§3)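 CellTiter-Glo luminescence after 72 hr compound exposure at 37 degree celsius gave cell viability. Libraries NPC and MIPE were run as 8- and 11-point dose responses; RLUs normalized to DMSO (negative) and no-cell (cytotoxicity) controls.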

MKL-1 = assay: as above; conditions: MCC and control cell lines, CellTiter-Glo viability, 72 h; activity change, negative = cytotoxicity: at 46 µM (top of the series)
Outline: as §3

MKL-2 = assay: as above; conditions: MCC and control cell lines, CellTiter-Glo viability, 72 h; activity change, negative = cytotoxicity: at 46 µM (top of the series)
Outline: as §3

UISO = assay: as above; conditions: MCC and control cell lines, CellTiter-Glo viability, 72 h; activity change, negative = cytotoxicity: at 46 µM (top of the series)
Outline: as §3

WaGa = assay: as above; conditions: MCC and control cell lines, CellTiter-Glo viability, 72 h; series mostly up to 46 µM
Outline: as §3
Tags describe the fitted curve by direction and shape.

Q: With `NC1[C@H]2CN(c3nc4c(cc3F)c(=O)c(C(=O)O)cn4-c3ccc(F)cc3F)C[C@@H]12` (stereo partly specified) as the molecule, how does the Potency [1] read?
A: The Potency was inconclusive [inhibitor, partial curve, poor fit].

Q: And the Potency [2]?
A: The Potency was inconclusive [inhibitor, single point].

Q: And the Potency [3]?
A: Its Potency is “inactive”.

Q: And the Potency (Papain (Carica papaya))?
A: Its Potency is inconclusive [inhibitor, single point].

Q: What about the Potency [4] of the same molecule?
A: Its Potency is inconclusive [inhibitor, single point].

Q: What about the Potency (HaCat) of the same molecule?
A: The Potency was inconclusive [inhibitor, single point].

Q: And the Potency (KB-3-1)?
A: The Potency was inconclusive [inhibitor, single point].

Q: What about the Potency (C33A) of the same molecule?
A: Its Potency is inconclusive [cytotoxic, partial curve, poor fit].

Q: What about the Potency (CAOV3) of the same molecule?
A: The Potency was inconclusive [cytotoxic, partial curve, poor fit].

Q: And the Potency (Es-2)?
A: The Potency was inconclusive [cytotoxic, partial curve, poor fit].

Q: And the Potency (HeLa)?
A: Its Potency is inconclusive [cytotoxic, single point].

Q: And the Potency (Hek293T)?
A: The Potency was inconclusive [cytotoxic, single point].

Q: What about the Potency (PA-1) of the same molecule?
A: Its Potency is inconclusive [cytotoxic, single point].

Q: And the Potency (SKOV3)?
A: The Potency was inconclusive [cytotoxic, single point].

Q: What about the Potency (Tov-21-G) of the same molecule?
A: The Potency was inconclusive [cytotoxic, partial curve].

Q: And the Potency (astro)?
A: The Potency was inconclusive [inhibitor, single point].

Q: And the Potency (MCC-13)?
A: The Potency was inconclusive [inhibitor, single point].

Q: What about the Potency (MKL-1) of the same molecule?
A: Its Potency is inconclusive [inhibitor, single point].

Q: And the Potency (MKL-2)?
A: Its Potency is inconclusive [inhibitor, partial curve].

Q: What about the Potency (UISO) of the same molecule?
A: The Potency was active: 26.6 µM.

Q: What about the Potency (WaGa) of the same molecule?
A: Its Potency is active: 21.1 µM.
